Data published in publication PMC4336329 (PLoS ONE, 2015).
The whole screen tested about 310,000 compounds, of which about 2,200 (0.71%) showed an effect of 50% or more. The effect is printed as a negative number. Some of the results follow.

Biological target: human ether-à-go-go-related gene (hERG) potassium channel (human, UniProt Q12809)
Experiment: primary screen, population patch clamp on CHO cells stably expressing hERG

Chain of human ether-à-go-go-related gene (hERG) potassium channel (Q12809 whole entry, looked up): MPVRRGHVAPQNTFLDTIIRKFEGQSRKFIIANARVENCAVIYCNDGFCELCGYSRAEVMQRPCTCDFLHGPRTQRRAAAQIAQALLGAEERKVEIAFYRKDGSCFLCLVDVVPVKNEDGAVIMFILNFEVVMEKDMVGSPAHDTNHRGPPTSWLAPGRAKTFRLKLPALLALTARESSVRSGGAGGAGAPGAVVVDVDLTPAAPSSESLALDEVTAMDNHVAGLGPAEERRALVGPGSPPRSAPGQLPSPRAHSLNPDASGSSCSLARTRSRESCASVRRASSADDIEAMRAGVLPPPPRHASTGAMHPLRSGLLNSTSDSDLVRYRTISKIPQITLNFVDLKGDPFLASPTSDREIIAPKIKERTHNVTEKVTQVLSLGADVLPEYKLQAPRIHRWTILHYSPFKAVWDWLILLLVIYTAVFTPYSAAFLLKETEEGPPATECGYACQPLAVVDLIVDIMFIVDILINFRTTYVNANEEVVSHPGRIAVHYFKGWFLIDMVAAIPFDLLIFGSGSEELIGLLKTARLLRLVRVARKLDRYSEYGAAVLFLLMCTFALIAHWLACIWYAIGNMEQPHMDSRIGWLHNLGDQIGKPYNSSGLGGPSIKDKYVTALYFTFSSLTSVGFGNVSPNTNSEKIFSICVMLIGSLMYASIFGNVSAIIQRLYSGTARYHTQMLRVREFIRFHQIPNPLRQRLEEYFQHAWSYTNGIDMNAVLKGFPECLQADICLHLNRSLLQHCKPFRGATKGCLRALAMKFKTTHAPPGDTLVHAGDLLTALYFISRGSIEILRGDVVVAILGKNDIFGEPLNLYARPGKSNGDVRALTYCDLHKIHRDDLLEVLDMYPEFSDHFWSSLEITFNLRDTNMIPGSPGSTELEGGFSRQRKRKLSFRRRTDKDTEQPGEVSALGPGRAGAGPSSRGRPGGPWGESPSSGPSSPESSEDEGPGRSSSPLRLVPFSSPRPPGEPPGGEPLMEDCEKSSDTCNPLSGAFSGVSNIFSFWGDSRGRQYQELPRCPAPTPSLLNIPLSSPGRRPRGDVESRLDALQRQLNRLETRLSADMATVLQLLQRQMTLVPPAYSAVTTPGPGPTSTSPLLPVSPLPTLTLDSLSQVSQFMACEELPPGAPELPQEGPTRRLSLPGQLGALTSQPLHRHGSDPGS

Row | Compound | hERG current change (%, negative = inhibition) at 1uM [%]
1 | COC(=O)C1=C(CS(=O)(=O)c2ccc(C)cc2)NC(=O)NC1c1ccc(OC)c(OC)c1 (stereo not shown) | 17.5
2 | O=C1OCc2cc(NS(=O)(=O)c3cccs3)ccc21 | 11.6
3 | COc1ccc(OC)c(S(=O)(=O)N2CCC(C(=O)N3CCc4ccccc4C3)CC2)c1 | 3.11
4 | COc1ccc(OC)c2c(N)c(C#N)c(C(F)(F)C(F)(F)F)nc12 | 10.1
5 | CCCc1cc(=O)n2nc(N3CCC(C(=O)NCc4ccc(C)o4)CC3)sc2n1 | -29.3
6 | COCCCn1c(SCc2ccc(OC)cc2)nc2cc(OC)c(OC)cc2c1=N | -1.06
7 | COCCCNC(=O)CCCn1c(=O)c2ccccc2n(Cc2cccc([N+](=O)[O-])c2)c1=O | 3.88
8 | COc1ccc(OC)c(NC(=S)N2c3ccccc3CC2C)c1 (stereo not shown) | 4.6
9 | Cn1c(=O)c2c(nc(N3CCOCC3)n2CCc2ccccc2)n(C)c1=O | 20.2
10 | OCC1(CC2CCCCO2)CCN(Cc2nc3ccccc3[nH]2)CC1 (stereo not shown) | 14.8
11 | COc1ccc(C(=O)CCS(=O)(=O)c2ccc(F)cc2)cc1OC | 16.8
12 | CCCCNC(=O)c1onc(CSc2cccc(C)c2)c1C(=O)O | 8.22
13 | CCOC(=O)C1(Cc2cccc(OC)c2)CCN(Cc2cccn2-c2ccccn2)CC1 | -79.4
14 | CCOc1ccc(NC(=O)c2ccc(N3CC4CC(C3)c3cccc(=O)n3C4)c(NC(=O)CCN3CCOCC3)c2)cc1 (stereo not shown) | 12.1
15 | COc1cc(CC(=O)NCCc2ccc(OCc3ccccc3)cc2)c([N+](=O)[O-])cc1OC | 5.36
16 | COc1cccc(-c2nc(CS(=O)(=O)CC(=O)NCCC(C)C)c(C)o2)c1 | 14.4
17 | CCOC(=O)c1cc(-c2ccccc2)nc2nc(N3CCCCC3)sc12 | 11.4
18 | CCC1Oc2ccccc2N(CC(=O)Nc2ccc(OC)cc2OC)C1=O (stereo not shown) | 13.2
19 | COc1ccc(Nc2c3ccccc3nc3ccccc23)cc1 | -20.2
20 | CCOC(=O)CN1C(=O)NC2(CCCc3ccccc32)C1=O (stereo not shown) | 12.9
21 | CC(=O)Nc1ccc(SC[C@H](CC(C)C)N2CCN(CCc3ccccc3)CCC2=O)cc1 | -26.2
22 | CC(C)CN1C(=O)c2ccc(C(=O)Nc3ccc(O)cc3C(=O)O)cc2C1=O | 13.2

Row | Compound | hERG current change (%, negative = inhibition) at 1uM [%]
23 | O=C(COc1ccc2c3c(c(=O)oc2c1)CCC3)N1CCN(c2ccc(F)cc2)CC1 | 3.26
24 | COc1ccc(/C=C/C(=O)Nc2nnc(C(C)C)s2)cc1OC | 4.69
25 | CCCCCN(C(=O)CCC(=O)OCC(=O)c1c(C)cc(C)cc1C)c1c(N)n(CCCC)c(=O)[nH]c1=O | 1.22
26 | O=c1[nH]c(/C=C\c2cccnc2)c([N+](=O)[O-])c(=O)[nH]1 | 10.8
27 | C/C(=N\NC(=O)c1ccc(N(C)C)cc1)c1ccc(C)c(C)c1 | 7.22
28 | Fc1cccc(Cl)c1Cn1ncc2ccccc21 | 5.44
29 | Cc1nnc(N2C(=O)C(=O)/C(=C(/O)c3ccc4c(c3)OCCO4)C2c2ccc([N+](=O)[O-])cc2)s1 (stereo not shown) | 15.1
30 | Cc1ccc(NC(=S)N(CCCN2CCCC2)Cc2cccn2Cc2ccc(Cl)cc2)cc1C | 10.2
31 | COC(=O)CCC(=O)N1CN2CN(C(=O)CCC(=O)OC)CC([N+](=O)[O-])(C2)C1 | -1.51
32 | CCCCCCNC(=O)Cc1c(O)c2ccccc2[nH]c1=O | 7.67
33 | O=C(CCN1CCN(Cc2ccccc2)CC1)Nc1cccc(Br)c1 | -19.5
34 | C=CCn1c(=O)c(C(=O)NCc2ccccc2)c(O)c2ccccc21 | 13.2
35 | O=C(Nc1cccc2ccccc12)NC(Cc1ccccc1)C(=O)O (stereo not shown) | 15.5
36 | COC(=O)CC(NC(=O)C1CC1)c1ccc2c(c1)OCO2 (stereo not shown) | 0.263
37 | CN(C)c1ccc(CNc2nc(-c3ccccc3)nn2S(C)(=O)=O)cc1 | 14.6
38 | CC1=C(C(=O)Nc2ccccc2)C(c2ccncc2)C(C#N)=C(SCC(=O)NC(C)C)N1 (stereo not shown) | -1.09
39 | COc1ccccc1NS(=O)(=O)c1ccc(O)c(C(=O)OCC(=O)c2ccc(Cl)cc2Cl)c1 | 13.8
40 | Cc1cc(C(=O)CSc2nnc(N)s2)c(C)n1C1CC1 | 3.92
41 | CCCCn1c(N)c(N(C(=O)CSc2nnc(C)n2-c2ccccc2)C2CCCC2)c(=O)[nH]c1=O | 7.51
42 | COc1ccc(CCNc2nnc(C)c(=O)[nH]2)cc1OC | 5.03
43 | COc1ccc(C(=O)Oc2cc(C)c(CN3CCOCC3)cc2C)cc1OC | -1.52
